This is one part of the list.

The chains are these.
B1: chr1:43978039:43978149:+|3pUTR|ENSG00000117410|unk|FALSE|unique (ssRNA)
RNA: GGGAGUUCUACAGUCCGACGAUCGGCCGUGCCUCACUUUUAUUUAUUGCUGGUUUUCCUGGGACAGCUGGAGCUGUGUCCCUUAGCCUUUCAGAGGCUUGGUGUUCAGGGCCCUCCCUGCACUCCCCUCUUGCUGCGUGUUGACAACAGAGGAUUGAGCAUCA
B2: chr1:46316673:46316776:+|3pUTR|ENSG00000173660|unk|total|mutant (ssRNA)
RNA: GGGAGUUCUACAGUCCGACGAUCUGUUUCUUAUUUGUGUAACUGUAAGUUCACAUGAACCUCAUGGGUUUGGCUCCGGCUGGCCGCUUCUAUGUAAUUCGCAAUGAUUCCAUCUAAAUAAAAGUUCUAUGAUCUGCAAACCUGCAACAGAGGAUUGAGCAUCA
B3: chr18:35366693:35369214:-|three_prime_utr|ENSG00000186496|control|control|control (ssRNA)
RNA: GGGAGUUCUACAGUCCGACGAUCCAAAGCAUUUACUCAGAGCUAUUUCAGCACAAGGGAAGACACCAGAUGCAAACGCUCCUUAGUACAAAUCAGUGGUCUUAGUAAGCACCAGUCUCCUUUCAAGACUCAUGAAAGCCACAGCAACAGAGGAUUGAGCAUCA
B4: chr2:27433287:27433389:+|CDS|ENSG00000115216|unk|FALSE|unique (ssRNA)
RNA: GGGAGUUCUACAGUCCGACGAUCUUCCAGCAUGUCGGAGGGGGAGUCCCAGACAGUACUUAGCAGUGGCUCAGACCCAAAGGUAGAAUCCUCAUCUUCAGCUCCUGGCCUGACAUCAGUGUCACCUCCUGUGACCUCCACAACCAACAGAGGAUUGAGCAUCA
B5: chr7:101138466:101138856:+|3pUTR|ENSG00000106366|msi1|total|mutant (ssRNA)
RNA: GGGAGUUCUACAGUCCGACGAUCGAGUGGGGGGACAGAGACUCAGAUGAGGACAGAGUGGUUUCCAAUGUGUUCAACCGAUUCCGGAGCAGAAAUGCAAGGGGCUGCAUGACCUACCAGGACAGAACUUUCCCCAAUUACAGGCAACAGAGGAUUGAGCAUCA
B6: chr14:100884374:100884478:-|CDS|ENSG00000254656|unk|total|mutant (ssRNA)
RNA: GGGAGUUCUACAGUCCGACGAUCGAGGAGUCAUGCAACGGUUCACACCAGGCAAGGGGGGAUCCACUCAGUGGAGCAUCUGACCGGAUGAAAGAAGCAUCAGUCAACCCAUCGGGAGCCCGAGAAGAACAAGAGGCUCACACUCAACAGAGGAUUGAGCAUCA
B7: chr12:76029359:76029534:-|3pUTR|ENSG00000139289|msi1|total|mutant (ssRNA)
RNA: GGGAGUUCUACAGUCCGACGAUCAGAAGUUUAAAAAGCUAAAAGUUAAAAAUGGUGUAAUUAUGAAAAUCUAACACUCAAGACCGUUUCUAAAAGGAAAUCAGCCGUUAAGGAUACCUGAUUUCAAAAUAUUUAAAGCAUAACCAACAGAGGAUUGAGCAUCA
B8: chr20:38750096:38750197:+|CDS|ENSG00000101442|unk|total|mutant (ssRNA)
RNA: GGGAGUUCUACAGUCCGACGAUCGCAAAUGAUGUCUGAGCUUCUUUUUGAGUGCUACGGGAUUCCCAAGGUUGCCUAUGGAACCGACAGCCUCUUCAGCUUCUACCACAAUAAGCCAAAGAACUCGAUGUGCAGUGGGCUAAUCAACAGAGGAUUGAGCAUCA
B9: ENSG00000198589:be:win_5851|CDS|ENSG00000198589|bound_else_gene|NA|bound_elsewhere_windowed (ssRNA)
RNA: GGGAGUUCUACAGUCCGACGAUCACUCAACUAAUCCAGAAAAUUAUCAACAUUCUCACAGACAAGCAUGGAGCCUGGGGAAAUUCUGCAGUGAGUCGUCCUCUUGAGUUCUGGCGCCUUGACUACUGGGAAGAUGACUUGCGGCAACAGAGGAUUGAGCAUCA
B10: chr10:128098466:128098636:-|3pUTR|ENSG00000148773|msi1|FALSE|unique (ssRNA)
RNA: GGGAGUUCUACAGUCCGACGAUCUCCUUUCCUUUCUGAAAAUAAAGUUUUGUGCUUUGGAGAAUGACUCGUGAGCACAUCUUUAGGGACCAAGAGUGACUUUCUGUAAGGAGUGACUCGUGGCUUGCCUUGGUCUCUUGGGAACAACAGAGGAUUGAGCAUCA
B11: chr12:79773885:79773986:-|3pUTR|ENSG00000058272|msi1|total|mutant (ssRNA)
RNA: GGGAGUUCUACAGUCCGACGAUCGGUUAUUUAUUCUUUGUAUCUAAAACUGAACAGCUACUGUGCUAUAUUGAUUUUAUUGGCCGUAUUGAGCAGACCUUGUUUCUGCAUGAAACCCGUUGCAAAACCCACUAUUUUGGAAAUCAACAGAGGAUUGAGCAUCA
B12: chr10:25598329:25598431:+|CDS|ENSG00000151025|unk|total|mutant (ssRNA)
RNA: GGGAGUUCUACAGUCCGACGAUCAUCGAUGUUACAGAAGUCUCUCAGUGUCACCGCAAGCGCCAAGGAGAAGACUCUUGGAUCCGCUGGGAAAACCCAAACAGCAGGUGUGGAAGAACGCACUAAAUCCCAGAAACCUUUGCCCAACAGAGGAUUGAGCAUCA
B13: chr12:6347307:6347408:-|3pUTR|ENSG00000111319|msi1|total|mutant (ssRNA)
RNA: GGGAGUUCUACAGUCCGACGAUCGUCUGCUCCUCCUCUUGAACUUGGGUGGGAAACCCCACCCAAAAGCCCCCUUUGUUACUCCGGCAAUUCCCCUUCCCUGACUCCCGAGGGCCCGGGCCCGAGCAGACCCGGGUAAGUAAACAACAGAGGAUUGAGCAUCA
B14: chr14:96489241:96489342:+|3pUTR|ENSG00000140057|unk|FALSE|unique (ssRNA)
RNA: GGGAGUUCUACAGUCCGACGAUCUAAAGUGUAUAAUUCAGUGGCACUAAGUUCAUUCACAAUGAUCUGCAGCCACCACUAUCUAGUCCAGAACUUUCUCAUCACCCCAAAUGGAAACCCAGCACCUAUUAGGCAGUCACGCUCCAACAGAGGAUUGAGCAUCA

The target in this test is MSI1 full-length (mouse, UniProt Q61474 1-362). In words: nsRBNS (natural sequence RNA bind-n-seq); RBNS binding buffer (assumed for nsRBNS): 25 mM Tris pH 7.5, 150 mM KCl, 3 mM MgCl2, 0.01% Triton X-100, 500 ug/ml BSA, 20 U/ml SUPERase-In, 4 C; UNK is unkempt and MSI1 is Musashi-1; names of the RNAs are library labels; protein concentration not given here; high values mean tight binding.
UniProt Q61474, sequence (Q61474 whole entry): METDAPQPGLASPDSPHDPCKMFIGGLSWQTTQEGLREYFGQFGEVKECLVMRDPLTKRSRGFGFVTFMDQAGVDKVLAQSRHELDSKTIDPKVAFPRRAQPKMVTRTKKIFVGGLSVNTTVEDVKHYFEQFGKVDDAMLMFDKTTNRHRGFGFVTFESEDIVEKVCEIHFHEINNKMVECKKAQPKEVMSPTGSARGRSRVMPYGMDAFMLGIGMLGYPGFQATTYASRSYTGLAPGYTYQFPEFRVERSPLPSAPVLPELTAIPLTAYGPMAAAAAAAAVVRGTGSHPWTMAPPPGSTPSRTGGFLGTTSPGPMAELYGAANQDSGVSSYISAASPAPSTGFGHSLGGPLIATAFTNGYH
For the molecule B1, the binding signal is 0.579 enrichment R.

In turn, B2 returned a binding signal of 0.368 enrichment R. B3 gave a binding signal of 1.07 enrichment R.

B4 came in with a binding signal of 0.967 enrichment R. As for B5, the figure is 0.559 enrichment R; as for B6, 0.506 enrichment R; as for B7, 2.73 enrichment R. The figure for B8 is 0.312 enrichment R; for B9 it is 0.597 enrichment R. As for B10, the figure is 0.327 enrichment R. B11 yielded a binding signal of 0.795 enrichment R. The figure for B12 is 0.392 enrichment R; for B13 it is 0.71 enrichment R; for B14 it is 0.983 enrichment R.

Source of the values: PMC12136788.
